In all, about 310,000 compounds went through this assay and about 2,200 (0.71%) showed an effect of 50% or more. Effects have a minus sign here. The list shows a part of the results.
biological target: human ether-à-go-go-related gene (hERG) potassium channel (human, UniProt Q12809); experiment: primary screen, population patch clamp on CHO cells stably expressing hERG
Sequence (Q12809 whole entry, looked up): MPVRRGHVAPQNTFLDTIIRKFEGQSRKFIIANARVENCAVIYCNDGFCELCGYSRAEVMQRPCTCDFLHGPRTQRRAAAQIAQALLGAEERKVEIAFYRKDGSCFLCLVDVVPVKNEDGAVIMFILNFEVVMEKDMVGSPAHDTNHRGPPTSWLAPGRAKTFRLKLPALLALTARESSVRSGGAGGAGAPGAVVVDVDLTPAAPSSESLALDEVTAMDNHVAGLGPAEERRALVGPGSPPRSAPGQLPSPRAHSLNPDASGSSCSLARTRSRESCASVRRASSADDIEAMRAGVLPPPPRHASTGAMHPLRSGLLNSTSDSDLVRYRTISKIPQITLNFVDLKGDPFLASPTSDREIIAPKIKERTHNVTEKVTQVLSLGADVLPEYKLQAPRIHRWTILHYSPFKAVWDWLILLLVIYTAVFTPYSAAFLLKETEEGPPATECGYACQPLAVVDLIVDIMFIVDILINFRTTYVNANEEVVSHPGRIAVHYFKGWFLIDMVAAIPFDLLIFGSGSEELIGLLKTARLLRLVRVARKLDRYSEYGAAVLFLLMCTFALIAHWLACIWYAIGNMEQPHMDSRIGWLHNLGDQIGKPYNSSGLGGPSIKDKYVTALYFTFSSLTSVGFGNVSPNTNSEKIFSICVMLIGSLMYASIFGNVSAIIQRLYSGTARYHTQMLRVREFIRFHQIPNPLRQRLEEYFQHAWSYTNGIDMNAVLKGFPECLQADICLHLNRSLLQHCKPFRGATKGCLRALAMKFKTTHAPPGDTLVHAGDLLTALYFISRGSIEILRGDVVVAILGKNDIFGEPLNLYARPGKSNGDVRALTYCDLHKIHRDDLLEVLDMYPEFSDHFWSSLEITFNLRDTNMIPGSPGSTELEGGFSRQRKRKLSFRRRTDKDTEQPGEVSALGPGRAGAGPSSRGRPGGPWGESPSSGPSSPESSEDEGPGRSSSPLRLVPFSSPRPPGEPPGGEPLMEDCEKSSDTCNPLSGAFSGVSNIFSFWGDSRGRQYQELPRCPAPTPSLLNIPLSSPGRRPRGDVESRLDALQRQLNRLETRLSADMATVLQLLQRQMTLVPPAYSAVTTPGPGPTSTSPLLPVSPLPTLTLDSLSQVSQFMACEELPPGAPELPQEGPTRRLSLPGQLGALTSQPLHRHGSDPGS

Question: For `O=C(NC1CCN(C(=O)c2cccc([N+](=O)[O-])c2)CC1)c1ccccc1`, which “hERG current change (%, negative = inhibition) at 1uM” value is on record?
Answer: 10%

Question: For `CC(=O)Nc1ccc(CN2CCC(Oc3ccc(C(=O)N4CCCC4)cc3)CC2)cc1`, which “hERG current change (%, negative = inhibition) at 1uM” value is on record?
Answer: -6.27%

Question: How did the “hERG current change (%, negative = inhibition) at 1uM” value turn out when `COc1ccc(-c2coc3cc(O)c(OC)cc3c2=O)cc1` was run?
Answer: 9.88%

Question: For `Cn1c(SC2CCCCC2=O)nnc1-c1ccncc1` (centres unmarked), which “hERG current change (%, negative = inhibition) at 1uM” value is on record?
Answer: -3.05%

Question: For `CCC(=O)c1c(CC)c2n3c1CC[C@H]3CCC2`, which “hERG current change (%, negative = inhibition) at 1uM” value is on record?
Answer: 2.14%

Question: Which “hERG current change (%, negative = inhibition) at 1uM” value does the source give for `c1ccc(Cn2c(-c3ccco3)nc3nc4ccccc4nc32)cc1` here?
Answer: 8.8%

Question: How did the “hERG current change (%, negative = inhibition) at 1uM” value turn out when `O=c1[nH]c(CSc2ncnc3sccc23)nc2cc(C(F)(F)F)ccc12` was run?
Answer: 12.3%

Question: With `CC(O)(C#CCN1CCCCCC1)c1ccccc1` (centres unmarked) as the compound, how does the “hERG current change (%, negative = inhibition) at 1uM” value read?
Answer: 6.84%

Question: `CC(C)(C)c1nnc(NS(=O)(=O)c2ccc([N+](=O)[O-])cc2)s1` was tested. Which “hERG current change (%, negative = inhibition) at 1uM” value did it give?
Answer: 26.2%

Question: For `O=C(Nc1nc(-c2ccccc2)cs1)c1cccc([N+](=O)[O-])c1`, which “hERG current change (%, negative = inhibition) at 1uM” value is on record?
Answer: 4.94%

Question: For `CCSc1nnc(-c2cc3c(s2)-c2ccccc2CC3)o1`, which “hERG current change (%, negative = inhibition) at 1uM” value is on record?
Answer: 6.18%

Question: With `COc1ccc(CC2(CO)CCN(S(=O)(=O)c3cccc4cccnc34)CC2)cc1` as the compound, how does the “hERG current change (%, negative = inhibition) at 1uM” value read?
Answer: 8.05%

Question: For `CSC1=NSC2=NC(=O)/C(=C/c3coc4ccccc4c3=O)C(=N)N12`, which “hERG current change (%, negative = inhibition) at 1uM” value is on record?
Answer: 3.58%

Question: With `Cc1[nH]c2ccccc2c1C(=O)COC(=O)C(C)C` as the compound, how does the “hERG current change (%, negative = inhibition) at 1uM” value read?
Answer: -3.52%

Question: Which “hERG current change (%, negative = inhibition) at 1uM” value does the source give for `COCCCNC(=O)[C@H](CSCc1ccccc1)N1Cc2ccccc2C1=O` here?
Answer: 12.1%

Question: For `CCN1CCCC1CN(Cc1cc2ccc(C)cc2[nH]c1=O)C(=S)Nc1ccc(F)cc1` (centres unmarked), which “hERG current change (%, negative = inhibition) at 1uM” value is on record?
Answer: -70.6%

Question: Which “hERG current change (%, negative = inhibition) at 1uM” value does the source give for `Cc1ccc(C(NC(=O)N2CC(C)OC(C)C2)C(Cl)Cl)cc1F` (centres unmarked) here?
Answer: 11.9%

Question: `CCOC(=O)c1c(NC(=O)C(=O)N/N=C/c2ccc(OCC)cc2)sc2c1CCCCC2` was tested. Which “hERG current change (%, negative = inhibition) at 1uM” value did it give?
Answer: 8.66%

Question: For `CCOC(=O)c1c(NC(=O)c2c(Br)cnn2CC)sc(C)c1C`, which “hERG current change (%, negative = inhibition) at 1uM” value is on record?
Answer: 10.8%

Question: For `O=C(Nc1nc(-c2ccccn2)cs1)c1ccc(Br)s1`, which “hERG current change (%, negative = inhibition) at 1uM” value is on record?
Answer: 13.4%

Question: Which “hERG current change (%, negative = inhibition) at 1uM” value does the source give for `Cc1ccccc1NC(=O)NCCN1C(=O)C2C3C=CC(C3)C2C1=O` (centres unmarked) here?
Answer: 13.8%

Question: How did the “hERG current change (%, negative = inhibition) at 1uM” value turn out when `CCOc1ccc(S(=O)(=O)Nc2ccc(C(=O)NCC(c3ccccc3)N(C)C)cc2)cc1` (centres unmarked) was run?
Answer: -11.6%

Question: Which “hERG current change (%, negative = inhibition) at 1uM” value does the source give for `Cc1c(C(=O)N2CCCCC2)c(S(=O)(=O)NCc2ccc(N(C)C)cc2)c(C)n1C` here?
Answer: 18.4%

Question: Which “hERG current change (%, negative = inhibition) at 1uM” value does the source give for `CCOC(=O)C1(Cc2ccccc2)CCCN(C(=O)C=C(C)C)C1` (centres unmarked) here?
Answer: 18.5%

Question: With `COc1ccc([C@@H]2[C@@H]3C(=O)N(C(C)(C)C)C(=O)[C@@H]3[C@]3(C)C(=O)N(c4ccccc4)C(=O)N23)cc1` as the compound, how does the “hERG current change (%, negative = inhibition) at 1uM” value read?
Answer: 7.39%

Question: For `O=[N+]([O-])c1cccc(C(=Nc2ccc(Cl)cc2)NO)c1`, which “hERG current change (%, negative = inhibition) at 1uM” value is on record?
Answer: 13.1%

Question: `CC(C)C[C@H](NC(=O)NCc1ccc(F)cc1)C(=O)O` was tested. Which “hERG current change (%, negative = inhibition) at 1uM” value did it give?
Answer: 5.71%

Question: For `Cc1ccnc(NC(=O)CNC(=O)c2ccc(C)s2)c1`, which “hERG current change (%, negative = inhibition) at 1uM” value is on record?
Answer: 2.55%

Question: `COc1cc(C2C(C(=O)c3ccc(C)o3)=C(O)C(=O)N2CCCn2ccnc2)cc(OC)c1OC` (centres unmarked) was tested. Which “hERG current change (%, negative = inhibition) at 1uM” value did it give?
Answer: -10.8%

Question: `CC(=O)OCC1OC(n2cc(F)c(=O)[nH]c2=O)C(OC(C)=O)C1OC(C)=O` (centres unmarked) was tested. Which “hERG current change (%, negative = inhibition) at 1uM” value did it give?
Answer: 8.4%

Question: `Cc1noc(NC(=O)c2cccc(C(F)(F)F)c2)c1Cl` was tested. Which “hERG current change (%, negative = inhibition) at 1uM” value did it give?
Answer: 7.08%

Question: How did the “hERG current change (%, negative = inhibition) at 1uM” value turn out when `Cc1nnsc1C(=O)Nc1ccc(S(=O)(=O)N2CCC(C)CC2)cc1` was run?
Answer: 16.9%

Question: For `c1ccc(CC(Nc2ccccn2)c2ccccc2)cc1` (centres unmarked), which “hERG current change (%, negative = inhibition) at 1uM” value is on record?
Answer: -10.6%

Question: With `COc1ccc(OC)c(C(=O)NC(CC(N)=O)c2ccc(N3CCC(N4CCCC4)CC3)c([N+](=O)[O-])c2)c1` (centres unmarked) as the compound, how does the “hERG current change (%, negative = inhibition) at 1uM” value read?
Answer: 12.9%

Question: Which “hERG current change (%, negative = inhibition) at 1uM” value does the source give for `CCOCCn1c(CN2CCN(C)CC2)nc2c1c(=O)n(C)c(=O)n2C` here?
Answer: 17.2%

Question: How did the “hERG current change (%, negative = inhibition) at 1uM” value turn out when `CCN(CC)CCN(C(=O)c1c(F)cccc1F)c1nc2cc(C)cc(C)c2s1.Cl` was run?
Answer: 2.79%

Question: Which “hERG current change (%, negative = inhibition) at 1uM” value does the source give for `N#Cc1c(-c2ccccc2)cc(-c2ccccc2)[nH]c1=O` here?
Answer: 12.9%

Question: With `O=C(CSc1nc2ccccc2c(=O)n1CCC(=O)N1CCN(c2ccccc2)CC1)NCC1CCCO1` (centres unmarked) as the compound, how does the “hERG current change (%, negative = inhibition) at 1uM” value read?
Answer: 3.09%

Question: For `Cc1ccc(NS(=O)(=O)c2coc(C(N)=O)c2)cc1F`, which “hERG current change (%, negative = inhibition) at 1uM” value is on record?
Answer: 12.4%

Question: How did the “hERG current change (%, negative = inhibition) at 1uM” value turn out when `O=C(c1ccc(S(=O)(=O)N2CCOCC2)cc1)N1CCOCC1` was run?
Answer: 9.57%

Question: With `COC(=O)c1ccc(CSc2nnc3nc(C)cc(C)n23)cc1` as the compound, how does the “hERG current change (%, negative = inhibition) at 1uM” value read?
Answer: 11.9%

Question: Which “hERG current change (%, negative = inhibition) at 1uM” value does the source give for `Cc1nnsc1NC(=O)OCc1ccccc1Cl` here?
Answer: 13.4%

Question: Which “hERG current change (%, negative = inhibition) at 1uM” value does the source give for `COc1ccccc1-c1nc(C#N)c(N2CCc3ccccc3C2)o1` here?
Answer: 8.12%

Question: Which “hERG current change (%, negative = inhibition) at 1uM” value does the source give for `Cc1cc(C)nc(N2C(=O)CC(C(C)c3ccccc3)C2=O)n1` (centres unmarked) here?
Answer: 12.5%

Question: `O=C(CCn1nnnc1CN1CCOCC1)N1CCC(c2ccccc2Cl)C1` (centres unmarked) was tested. Which “hERG current change (%, negative = inhibition) at 1uM” value did it give?
Answer: 4.81%

Question: For `CC(C)C(=O)NC(=S)Nc1nnn(C)n1`, which “hERG current change (%, negative = inhibition) at 1uM” value is on record?
Answer: 16.2%

Question: Which “hERG current change (%, negative = inhibition) at 1uM” value does the source give for `CCOc1ccccc1CN1CCNC(=O)C1CC(=O)N(C)CCc1ccccn1` (centres unmarked) here?
Answer: 14.8%

Question: For `Cc1nn(-c2ccccc2)c(C)c1C(=O)OCC(=O)NC(=O)NC1CCCCC1`, which “hERG current change (%, negative = inhibition) at 1uM” value is on record?
Answer: 6.41%

Question: With `O=CN1CCN(C(=O)C(=O)c2cn(CC(=O)N3CCCCC3)c3ccccc23)CC1` as the compound, how does the “hERG current change (%, negative = inhibition) at 1uM” value read?
Answer: 16.2%

Question: How did the “hERG current change (%, negative = inhibition) at 1uM” value turn out when `CCC1(c2ccccc2)NC(=O)N(CC(=O)Nc2cccc(C#N)c2)C1=O` (centres unmarked) was run?
Answer: 7.23%

Question: How did the “hERG current change (%, negative = inhibition) at 1uM” value turn out when `COc1ccccc1N1CCN(S(=O)(=O)CCNC(=O)CC2CCCCC2)CC1` was run?
Answer: 5.55%

Question: `Cc1noc(C)c1C(c1ccccc1)c1ccccc1` was tested. Which “hERG current change (%, negative = inhibition) at 1uM” value did it give?
Answer: 3.63%

Question: How did the “hERG current change (%, negative = inhibition) at 1uM” value turn out when `O=[N+]([O-])c1ccccc1S(=O)(=O)N1CCN(c2ccccc2)CC1` was run?
Answer: 7.9%

Question: How did the “hERG current change (%, negative = inhibition) at 1uM” value turn out when `Cc1ccc2nc(NS(=O)(=O)c3cn(C)nc3C)sc2c1` was run?
Answer: 1.52%

Question: How did the “hERG current change (%, negative = inhibition) at 1uM” value turn out when `CC(C)CCNC(=O)CN(Cc1ccccc1Cl)C(=O)CCC(=O)Nc1ccccn1` was run?
Answer: 1.91%

Question: How did the “hERG current change (%, negative = inhibition) at 1uM” value turn out when `CC(NC(=O)c1cnc2n(c1=O)CCS2)c1ccccc1` (centres unmarked) was run?
Answer: 7.49%

— article PMC4336329 (PLoS ONE, 2015)
